Experimental data: PubChem BioAssay AID894 (National Center for Advancing Translational Sciences (NCATS), 2007)
The whole screen tested about 150,000 compounds, of which about 6,500 (4.3%) were called active. The shares of active, inactive and inconclusive entries below differ from those in the screen. The call rests on the fitted dose curve; in most records, active means well fitted inhibition curve with a large enough effect (not every such curve was filed as active); inconclusive means small, poorly fitted or top-dose-only effect, or another doubt; inactive means no such curve, though single readings can be large or run the other way. Potencies of inconclusive entries are left out as doubtful fits.

biological target: 15-hydroxyprostaglandin dehydrogenase [NAD(+)] (Homo sapiens) (UniProt P15428); experiment: qHTS Assay for Inhibitors of HPGD (15-Hydroxyprostaglandin Dehydrogenase); conditions: purified HPGD, NADH fluorescence kinetic, PGE2 substrate; activity change, negative = inhibition: active compounds read low
Chain of UniProt P15428 (P15428 whole entry, looked up): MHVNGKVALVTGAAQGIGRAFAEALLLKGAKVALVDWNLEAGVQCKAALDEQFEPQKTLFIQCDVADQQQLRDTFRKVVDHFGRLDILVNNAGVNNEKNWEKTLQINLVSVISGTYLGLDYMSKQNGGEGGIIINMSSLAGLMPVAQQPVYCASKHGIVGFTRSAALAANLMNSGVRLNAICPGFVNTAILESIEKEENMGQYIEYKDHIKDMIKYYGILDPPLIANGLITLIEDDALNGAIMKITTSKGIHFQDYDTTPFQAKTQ
How it was run: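 NADH formation kinetics: reaction with 30 uM PGE2 and 1 mM NAD+ (final), 20 nM enzyme, Tris-HCl pH 8 with Tween 20, after 15 min compound preincubation at room temperature. Fluorescence change, last versus first of five reads.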
On the % scale 0 is the no-effect control and ±100 the full control effect; potency means the concentration at half of the fitted maximal effect; tags describe the fitted curve by direction and shape.

Row | SMILES | Potency | activity change, negative = inhibition
1 | O=C(NCc1ccc2c(c1)OCO2)c1cccs1 | active: 28.2 µM | –
2 | CCN(CC)CCOc1cc2c(nn1)Oc1ccccc1N2C | inconclusive [inhibitor, partial curve] | –
3 | C/C(=N\Nc1ccc([N+](=O)[O-])cc1)c1ccco1 | – | inactive: -5.2%
4 | CCCCn1cnc2c([nH]c3ccccc32)c1=O | inconclusive [inhibitor, partial curve] | –
5 | O=C(Cc1ccccc1)NCC(=O)N1CCCCCC1 | – | inactive: -25.2%
6 | O=C1OC2(c3ccc(O)cc3Oc3cc(O)ccc32)c2ccccc21 | – | inactive: -20.7%
7 | COc1cc(CCN2C(=O)c3cccc4cccc(c34)C2=O)c(S(=O)(=O)N2CCC(C)CC2)cc1OC | inconclusive [inhibitor, single point] | –
8 | CCN(C(=O)c1cc2cc(OC)ccc2oc1=O)c1cccc(C)c1 | inconclusive [inhibitor, full curve, poor fit] | –
9 | CN(C)c1ccc(-n2cc3c(=O)n(C)c(=O)n(C)c3c2)cc1 | inconclusive [inhibitor, single point] | –
10 | O=C(NCc1cccs1)c1ccc(Cl)s1 | active: 15.8 µM | –
11 | Cc1ccccc1NC(=S)NCc1ccccc1 | active: 28.2 µM | –
12 | COc1cc(/C=C/C(=O)OCC(=O)NCc2cccs2)ccc1OCC#N | inconclusive [inhibitor, partial curve] | –
13 | O=S(=O)(/N=C/c1c(O)ccc2ccccc12)c1cccs1 | inconclusive [inhibitor, partial curve] | –
14 | COc1ccccc1-c1cc(=O)c2cc(O)ccc2o1 | active: 15.8 µM | –
15 | Cc1cc(=O)oc2cc(OCC(=O)NCc3cccnc3)ccc12 | inconclusive [inhibitor, partial curve] | –
16 | CCC(=O)N(Cc1cc2ccccc2[nH]c1=O)C(C)C | inconclusive [inhibitor, single point] | –
17 | Cc1ccc(-c2nnc(-c3ccccc3)o2)cc1 | inconclusive [inhibitor, full curve] | –
18 | Cc1ccc2nc(-c3ccccn3)cc(C(=O)NC3CCN(C)CC3)c2c1 | inconclusive [inhibitor, partial curve] | –
19 | CN(C)c1ccc(NC2=C(Cl)C(=O)c3ccccc3C2=O)cc1 | active: 14.1 µM | –
20 | O=C(CSc1nc2ccccc2o1)c1ccccc1 | inconclusive [inhibitor, partial curve] | –
21 | COc1cc(OC)c2c(c1)OC(c1ccccc1)CC2=O (centres undefined) | inconclusive [inhibitor, partial curve, poor fit] | –
22 | CCOc1cc(/C=C2\C(=O)N(Cc3ccc(C)cc3)C(C)=C2C(=O)OC)ccc1O | inconclusive [inhibitor, single point] | –
23 | Cc1ccc(C)c2[nH]c(=O)c(C(c3nnnn3Cc3ccco3)N3CCc4ccccc4C3)cc12 (centres undefined) | inconclusive [inhibitor, partial curve] | –
24 | CCC(C)NC(=O)CS(=O)Cc1nc(-c2ccccc2C)oc1C (centres undefined) | – | inactive: -13.2%
25 | CC1(C)Cc2nc(N)c(C(=O)NCCO)cc2CO1 | inconclusive [inhibitor, partial curve] | –

Row | SMILES | Potency | activity change, negative = inhibition
26 | Cc1ccc(S(=O)(=O)c2cn(Cc3ccc(F)cc3)c3cc4c(cc3c2=O)OCO4)cc1 | inconclusive [inhibitor, single point] | –
27 | C/C(=C\C(=S)Nc1ccccc1)Nc1ccc2ccccc2c1 | inconclusive [inhibitor, single point] | –
28 | Cc1nc2nc(-c3ccco3)nn2c(C)c1Cl | inconclusive [inhibitor, partial curve] | –
29 | COc1cc(/C=C2/C(=O)NN(c3cccc(C)c3)C2=O)ccc1OC(=O)c1ccco1 | active: 2 µM | –
30 | O=C(Nc1ccc(S(=O)(=O)NC2CCCC2)cc1)c1cnccn1 | active: 7.94 µM | –
31 | Clc1cccc(Oc2ncccn2)c1 | – | inactive: -11.3%
32 | COc1ccc(C2N(c3cc(Cl)ccc3OC)C(=O)C3CCCN32)cc1OC (centres undefined) | – | inactive: -6.04%
33 | COc1cccc(N=Nc2c(=O)[nH]n3c(=O)c4c([nH]c23)CCC4)c1 | active: 14.1 µM | –
34 | CC1CC(C)CN(c2ccc(C(=O)NCc3ccc4c(c3)OCO4)cc2[N+](=O)[O-])C1 (centres undefined) | inconclusive [inhibitor, partial curve] | –
35 | CCN(CC)CCCN=Cc1c(O)n(Cc2ccccc2)c(=O)c2ccccc12 | inconclusive [inhibitor, partial curve, poor fit] | –
36 | O=c1c2ccccc2c(C=NCc2ccccn2)c(O)n1-c1ccccc1 | inconclusive [inhibitor, partial curve, poor fit] | –
37 | O=C(CS(=O)CC(=O)N(c1ccccc1)C(C(=O)NC1CCCC1)c1cccs1)Nc1ccc(F)cc1 (centres undefined) | – | inactive: -1.77%
38 | COCCOc1ccc(C(F)(F)F)cc1NC(=O)c1ccccc1F | inconclusive [inhibitor, single point] | –
39 | CC(=O)c1ccc(NC(=O)Nc2cccc(Cl)c2)cc1 | – | inactive: -2.92%
40 | C[C@@]12CC[C@@H]3c4ccc(O)cc4CC[C@H]3[C@H]1C[C@@H](O)[C@H]2O | – | inactive: 3.77%
41 | O=C(c1ccc(COc2ccccc2[N+](=O)[O-])o1)N1CCCCCC1 | active: 25.1 µM | –
42 | O=C(O)CCN1C(=O)c2ccc(NC(=O)c3cccs3)cc2C1=O | inconclusive [inhibitor, partial curve] | –
43 | O=C(N/N=C/C1CCCCC1)c1cc(Cl)ccc1O | inconclusive [inhibitor, partial curve] | –
44 | Cc1ccccc1OCCCN1C(=O)C(=O)c2cccc(C)c21 | inconclusive [inhibitor, single point] | –
45 | CCc1ccc(S(=O)(=O)Nc2ccc(-c3nc4cccnc4s3)cc2)s1 | inconclusive [inhibitor, partial curve] | –
46 | Clc1ccccc1Nc1nnc(-c2ccncc2)s1 | inconclusive [inhibitor, partial curve, poor fit] | –
47 | CCCc1nc(NCc2ccccc2)c(C#N)c2c1CCCC2 | inconclusive [inhibitor, partial curve] | –
48 | C=CCN1C(=O)N/C(=C/c2ccc(C)o2)C1=O | – | inactive: -18.9%
49 | COc1cccc(C2C3CN(C)CC=C3C(C#N)=C(N)C2(C#N)C#N)c1OC (centres undefined) | inconclusive [inhibitor, single point] | –
50 | O=C(c1ccccc1)N1CCCCCC1 | active: 4.47 µM | –

Row | SMILES | Potency | activity change, negative = inhibition
51 | CCOc1ccc(-c2nn(-c3ccccc3)cc2/C=C2\SC(N)=NC2=O)cc1C | active: 15.8 µM | –
52 | O=c1cc(CN2CCN(S(=O)(=O)/C=C/c3ccccc3)CC2)c2ccc(O)cc2o1 | inconclusive [inhibitor, partial curve] | –
53 | CCCS(=O)(=O)C(=C1NCCO1)S(=O)(=O)CCC | – | inactive: -13.6%
54 | COc1ccc(NC(=S)NCc2ccco2)c(OC)c1 | inconclusive [inhibitor, partial curve] | –
55 | O=C1NCCCC2c3c(cc(Br)c(O)c3Br)OC12N1CCCCC1 (centres undefined) | active: 12.6 µM | –
56 | O=C1CC(SCc2nc3ccccc3[nH]2)C(=O)N1c1ccc(Cl)cc1 (centres undefined) | – | inactive: -10.2%
57 | CCOC(=O)CC(=O)CSc1nc(C)nc2c1oc1ccccc12 | inconclusive [inhibitor, single point] | –
58 | Cc1cc(C)n2c(=S)[nH]nc2n1 | active: 2.82 µM | –
59 | CN(C)c1ccc(NC(=O)CSc2nc3c(c(=O)[nH]2)CCCC3)cc1 | – | inactive: -12.3%
60 | CCOC(=O)c1cnc(SCc2cccc3ccccc23)nc1N | active: 28.2 µM | –
61 | COc1ccc(Nc2cc(C(=O)NCCCN3CCOCC3)c3ccccc3n2)c(OC)c1 | – | inactive: -6.14%
62 | COc1cc(/C=C/c2ccccc2)oc(=O)c1 | inconclusive [inhibitor, partial curve] | –
63 | COc1cc2ccccc2cc1-c1nnc(COc2ccccc2)o1 | inconclusive [inhibitor, partial curve] | –
64 | Cc1cc(NS(=O)(=O)c2ccc(NC(=S)NC(=O)c3ccc(Cl)cc3Cl)cc2)no1 | active: 25.1 µM | –
65 | CC(C)CN1CCCC2(CCN(C(=O)c3ccco3)CC2)C1 | – | inactive: -3.49%
66 | COc1ccccc1/C=C/C(=O)OCC(=O)c1c(N)n(C)c(=O)n(C)c1=O | inconclusive [inhibitor, partial curve] | –
67 | Cn1nnnc1SCC(=O)c1ccc(Br)s1 | – | inactive: -14.7%
68 | Nc1nc(=S)[nH]c2c1C1(CCCC1)Cc1ccccc1-2 | active: 12.6 µM | –
69 | CCCOc1ccc(-c2nc(C#N)c(N3CCN(C)CC3)o2)cc1 | inconclusive [inhibitor, partial curve] | –
70 | CC(C)Oc1cc(O)c2c(=O)c(-c3ccc(O)cc3)coc2c1 | inconclusive [inhibitor, single point] | –
71 | COc1ccccc1OCC(=O)n1cc(C(=O)c2cc(Cl)cc(Cl)c2O)cn1 | active: 17.8 µM | –
72 | O=C(c1cccc(F)c1)N1CCC[C@@]2(CCN(Cc3ccccc3)C2)C1 | active: 17.8 µM | –
73 | Cc1cccc(N2C(=O)/C(=C\c3ccc(OC(F)F)cc3)c3ccccc3C2=O)c1 | active: 10 µM | –
74 | COc1cc(-c2nnc(SCC(=O)c3cc(C)n(CC4CCCO4)c3C)o2)cc(OC)c1OC (centres undefined) | inconclusive [inhibitor, partial curve] | –
